# Measurements as given in the supplement of paper PMC8728848.
# This is one part of the list.
# B1: CFEM-SCL (Saccharomyces cerevisiae), O13547 (protein)
# chain: MRATTLLSSVVSLALLSKEVLATPPACLLACVAQVGKSSSTCDSLNQVTCYCEHENSAVKKCLDSICPNNDADAAYSAFKSSCSEQNASLGD
# Legend:
# Experiment in all cases: glycan array binding signal (z-score within array); higher = stronger binding
# Conditions in all cases: glycan notation: IUPAC condensed, linker removed
# GalNAc(b1-4)GlcNAc = target: GalNAc(b1-4)GlcNAc
# Outline: (§1)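 Glycan array data were curated from 3228 arrays in the Consortium for Functional Glycomics database and kept only where the protein sequence was available. Glycan names were converted to IUPAC-condensed notation, and columns mapping to the same glycan were averaged. The binding signal is a within-array Z-score, averaged across arrays of the same protein sequence at different concentrations or buffers and across linkers. Negative Z-scores can be read as non-binding.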
# [1] = target: GalNAc(b1-4)GlcNAc(b1-2)Man
# Outline: as §1
# [2] = target: GalNAc(b1-4)GlcNAc(b1-2)Man(a1-3)[GalNAc(b1-4)GlcNAc(b1-2)Man(a1-6)]Man(b1-4)GlcNAc(b1-4)GlcNAc
# Outline: as §1
# [3] = target: GalNAc(b1-4)GlcNAc(b1-3)GalNAc(b1-4)GlcNAc
# Outline: as §1
# GalNAc(b1-4)GlcNAc6S = target: GalNAc(b1-4)GlcNAc6S
# Outline: as §1
# GalNAc(b1-6)GalNAc = target: GalNAc(b1-6)GalNAc
# Outline: as §1
# GalNAc3S(b1-4)GlcNAc = target: GalNAc3S(b1-4)GlcNAc
# Outline: as §1
# GalNAc3S(b1-4)GlcNAc3S = target: GalNAc3S(b1-4)GlcNAc3S
# Outline: as §1
# [4] = target: GalNAc3S(b1-4)[Fuc(a1-3)]GlcNAc
# Outline: as §1
# GalNAc4S6S(b1-4)GlcNAc = target: GalNAc4S6S(b1-4)GlcNAc
# Outline: as §1
# GalNAc6S(b1-4)GlcNAc = target: GalNAc6S(b1-4)GlcNAc
# Outline: as §1
# Glc(a1-4)Glc = target: Glc(a1-4)Glc
# Outline: as §1
# [5] = target: Glc(a1-4)Glc(a1-4)Glc(a1-4)Glc
# Outline: as §1
# Glc(a1-6)Glc(a1-6)Glc = target: Glc(a1-6)Glc(a1-6)Glc
# Outline: as §1
# [6] = target: Glc(a1-6)Glc(a1-6)Glc(a1-6)Glc
# Outline: as §1
# Glc(b1-4)Glc = target: Glc(b1-4)Glc
# Outline: as §1
# Glc(b1-6)Glc = target: Glc(b1-6)Glc
# Outline: as §1
# GlcA(b1-3)Gal = target: GlcA(b1-3)Gal
# Outline: as §1
# GlcA(b1-3)GlcNAc = target: GlcA(b1-3)GlcNAc
# Outline: as §1
# GlcA(b1-6)Gal = target: GlcA(b1-6)Gal
# Outline: as §1
# [7] = target: GlcA3S(b1-3)Gal(b1-4)GlcNAc(b1-2)Man
# Outline: as §1
# [8] = target: GlcA3S(b1-3)Gal(b1-4)GlcNAc(b1-3)Gal(b1-4)Glc
# Outline: as §1
# [9] = target: GlcNAc(a1-3)Gal(b1-4)GlcNAc
# Outline: as §1
# [10] = target: GlcNAc(a1-4)Gal(b1-3)GlcNAc
# Outline: as §1
# [11] = target: GlcNAc(a1-4)Gal(b1-4)GalNAc
# Outline: as §1
# [12] = target: GlcNAc(a1-4)Gal(b1-4)GlcNAc
# Outline: as §1
# [13] = target: GlcNAc(a1-4)Gal(b1-4)GlcNAc(b1-3)Gal(b1-4)Glc
# Outline: as §1
# [14] = target: GlcNAc(a1-4)Gal(b1-4)GlcNAc(b1-3)Gal(b1-4)GlcNAc
# Outline: as §1
# [15] = target: GlcNAc(a1-4)Gal(b1-4)GlcNAc(b1-3)Gal(b1-4)GlcNAc(b1-3)Gal(b1-4)GlcNAc
# Outline: as §1
# [16] = target: GlcNAc(a1-4)Gal(b1-4)GlcNAc(b1-3)Gal(b1-4)[Fuc(a1-3)]GlcNAc(b1-3)Gal(b1-4)[Fuc(a1-3)]GlcNAc
# Outline: as §1
# [17] = target: GlcNAc(a1-6)Gal(b1-4)GlcNAc
# Outline: as §1
# [18] = target: GlcNAc(b1-2)Gal(b1-3)GalNAc
# Outline: as §1
# [19] = target: GlcNAc(b1-2)Man(a1-3)[GlcNAc(b1-2)Man(a1-6)]Man(b1-4)GlcNAc(b1-4)GlcNAc
# Outline: as §1
# [20] = target: GlcNAc(b1-2)Man(a1-3)[GlcNAc(b1-2)Man(a1-6)]Man(b1-4)GlcNAc(b1-4)[Fuc(a1-6)]GlcNAc
# Outline: as §1
# [21] = target: GlcNAc(b1-2)Man(a1-3)[GlcNAc(b1-4)][GlcNAc(b1-2)Man(a1-6)]Man(b1-4)GlcNAc(b1-4)GlcNAc
# Outline: as §1
# [22] = target: GlcNAc(b1-2)Man(a1-3)[GlcNAc(b1-4)][GlcNAc(b1-2)Man(a1-6)]Man(b1-4)GlcNAc(b1-4)[Fuc(a1-6)]GlcNAc
# Outline: as §1
# [23] = target: GlcNAc(b1-2)[GlcNAc(b1-4)]Man(a1-3)[GlcNAc(b1-2)Man(a1-6)]Man(b1-4)GlcNAc(b1-4)GlcNAc
# Outline: as §1
# [24] = target: GlcNAc(b1-2)[GlcNAc(b1-4)]Man(a1-3)[GlcNAc(b1-4)][GlcNAc(b1-2)Man(a1-6)]Man(b1-4)GlcNAc(b1-4)GlcNAc
# Outline: as §1
# [25] = target: GlcNAc(b1-2)[GlcNAc(b1-4)]Man(a1-3)[GlcNAc(b1-4)][GlcNAc(b1-2)[GlcNAc(b1-6)]Man(a1-6)]Man(b1-4)GlcNAc(b1-4)GlcNAc
# Outline: as §1
# [26] = target: GlcNAc(b1-2)[GlcNAc(b1-4)]Man(a1-3)[GlcNAc(b1-4)][GlcNAc(b1-2)[GlcNAc(b1-6)]Man(a1-6)]Man(b1-4)GlcNAc(b1-4)[Fuc(a1-6)]GlcNAc
# Outline: as §1
# [27] = target: GlcNAc(b1-2)[GlcNAc(b1-6)]Man(a1-6)[GlcNAc(b1-2)Man(a1-3)]Man(b1-4)GlcNAc(b1-4)GlcNAc
# Outline: as §1
# [28] = target: GlcNAc(b1-2)[GlcNAc(b1-6)]Man(a1-6)[GlcNAc(b1-2)Man(a1-3)]Man(b1-4)GlcNAc(b1-4)[Fuc(a1-6)]GlcNAc
# Outline: as §1
# [29] = target: GlcNAc(b1-2)[GlcNAc(b1-6)]Man(a1-6)[GlcNAc(b1-4)][GlcNAc(b1-2)Man(a1-3)]Man(b1-4)GlcNAc(b1-4)GlcNAc
# Outline: as §1
# GlcNAc(b1-3)Fuc = target: GlcNAc(b1-3)Fuc
# Outline: as §1
# GlcNAc(b1-3)Gal = target: GlcNAc(b1-3)Gal
# Outline: as §1
binder,measurement,setting,value
B1,glycan array binding signal (z-score),GalNAc(b1-4)GlcNAc,0.047
same,glycan array binding signal (z-score),[1],-0.281
same,glycan array binding signal (z-score),[2],-0.012
same,glycan array binding signal (z-score),[3],-0.383
same,glycan array binding signal (z-score),GalNAc(b1-4)GlcNAc6S,-0.279
same,glycan array binding signal (z-score),GalNAc(b1-6)GalNAc,-0.254
same,glycan array binding signal (z-score),GalNAc3S(b1-4)GlcNAc,0.022
same,glycan array binding signal (z-score),GalNAc3S(b1-4)GlcNAc3S,-0.259
same,glycan array binding signal (z-score),[4],-0.178
same,glycan array binding signal (z-score),GalNAc4S6S(b1-4)GlcNAc,-0.241
same,glycan array binding signal (z-score),GalNAc6S(b1-4)GlcNAc,-0.324
same,glycan array binding signal (z-score),Glc(a1-4)Glc,-0.252
same,glycan array binding signal (z-score),[5],-0.317
same,glycan array binding signal (z-score),Glc(a1-6)Glc(a1-6)Glc,-0.164
same,glycan array binding signal (z-score),[6],-0.331
same,glycan array binding signal (z-score),Glc(b1-4)Glc,-0.221
same,glycan array binding signal (z-score),Glc(b1-6)Glc,-0.291
same,glycan array binding signal (z-score),GlcA(b1-3)Gal,-0.286
same,glycan array binding signal (z-score),GlcA(b1-3)GlcNAc,-0.277
same,glycan array binding signal (z-score),GlcA(b1-6)Gal,1.15
same,glycan array binding signal (z-score),[7],-0.222
same,glycan array binding signal (z-score),[8],-0.231
same,glycan array binding signal (z-score),[9],-0.281
same,glycan array binding signal (z-score),[10],-0.301
same,glycan array binding signal (z-score),[11],-0.226
same,glycan array binding signal (z-score),[12],-0.226
same,glycan array binding signal (z-score),[13],-0.144
same,glycan array binding signal (z-score),[14],-0.225
same,glycan array binding signal (z-score),[15],-0.258
same,glycan array binding signal (z-score),[16],-0.083
same,glycan array binding signal (z-score),[17],0.97
same,glycan array binding signal (z-score),[18],-0.299
same,glycan array binding signal (z-score),[19],-0.298
same,glycan array binding signal (z-score),[20],-0.124
same,glycan array binding signal (z-score),[21],-0.342
same,glycan array binding signal (z-score),[22],-0.252
same,glycan array binding signal (z-score),[23],-0.322
same,glycan array binding signal (z-score),[24],-0.326
same,glycan array binding signal (z-score),[25],-0.303
same,glycan array binding signal (z-score),[26],-0.292
same,glycan array binding signal (z-score),[27],-0.238
same,glycan array binding signal (z-score),[28],0.017
same,glycan array binding signal (z-score),[29],-0.119
same,glycan array binding signal (z-score),GlcNAc(b1-3)Fuc,-0.246
same,glycan array binding signal (z-score),GlcNAc(b1-3)Gal,-0.178
